The whole screen tested about 410,000 compounds, of which about 6,400 (1.6%) were called active. Inconclusive means that the source gave no clear call. Such entries were picked first, then a sample of the others. Calls follow the shape of the dose curve; as a rule, active = well fitted inhibition curve with a large enough effect; inconclusive = small, poorly fitted or top-dose-only effect; inactive = no such curve, though single readings can be large or run the other way. A potency beside an inconclusive call is a rough fit, not a confirmed value.
Each compound was assayed against Glucagon-like peptide 1 receptor (Homo sapiens) (UniProt P43220) (assay: qHTS of GLP-1 Receptor Inverse Agonists (Inhibition Mode)). Settings: HEK293 GLP-1R CRE-luciferase, luminescence, 24 h, GLP-1R form is constitutively active; series mostly up to 38.3 µM.
Chain of UniProt P43220 (P43220 whole entry, looked up): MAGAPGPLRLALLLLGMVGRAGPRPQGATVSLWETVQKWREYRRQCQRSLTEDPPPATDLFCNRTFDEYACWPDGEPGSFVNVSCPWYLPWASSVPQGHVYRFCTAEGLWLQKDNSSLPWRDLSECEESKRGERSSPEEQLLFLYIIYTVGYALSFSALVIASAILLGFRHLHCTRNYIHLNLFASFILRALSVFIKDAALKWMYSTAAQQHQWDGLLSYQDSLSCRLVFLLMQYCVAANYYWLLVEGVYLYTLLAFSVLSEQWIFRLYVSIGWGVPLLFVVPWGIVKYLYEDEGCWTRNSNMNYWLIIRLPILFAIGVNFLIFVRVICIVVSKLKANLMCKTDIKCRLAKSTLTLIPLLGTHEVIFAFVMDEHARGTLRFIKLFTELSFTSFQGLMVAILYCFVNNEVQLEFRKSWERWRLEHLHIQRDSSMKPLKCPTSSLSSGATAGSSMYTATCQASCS
How it was run: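 Inverse agonists were sought by their lowering of basal cAMP reporter luciferase output in HEK293 cells stably carrying constitutively active human GLP-1R, after 24 h compound treatment.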
Also: nearly all actives have a fitted effect of over 55% in size.
Potency is read from the fitted curve at half-maximal effect; tags tell the direction and shape of the fitted curve.

Potency, active:
CC(C)OC(=O)NC(c1ccccc1)C(Cl)(Cl)Cl (stereo unspecified) 11.2 µM

Potency, inactive:
CN1CCn2cnc(C(=O)N[C@@H](Cc3ccccc3)C(=O)OC(C)(C)C)c2C1=O
CCCCc1nn2c(=O)cc(COC(=O)c3cccs3)nc2s1
Cc1ccc(NC(=O)C2CCCN(c3ncnc4onc(C)c34)C2)cc1Cl (stereo unspecified)
COc1ccc(CNC(=O)CSCc2ccccc2Cl)cc1
CCOCCCNC(=O)Cn1nc(CC)n2c(cc3c(OC)cccc32)c1=O
O=[N+]([O-])c1ccc(NNS(=O)(=O)c2cc(Cl)ccc2Cl)nc1
CC(=O)Nc1ccc(S(=O)(=O)Nc2nc3ccccc3nc2Nc2ccc(O)c(C(=O)O)c2)cc1
CCOC(=O)c1sc2cccc(F)c2c1S(=O)(=O)Nc1ccccc1F
O=S(=O)(c1ccccc1)c1nc(-c2ccco2)oc1SCc1ccc(F)cc1
CCCCC(=O)Nc1ccc(C(=O)OCc2cc(=O)n3ccsc3n2)cc1
Nc1ncnc2c1ncn2[C@@H]1O[C@H](CNS(=O)(=O)c2cc3ccccc3s2)[C@@H](O)[C@H]1O
COc1ccc(S(=O)(=O)N(C)C[C@H]2OCc3cnnn3CCCC(=O)N([C@@H](C)CO)C[C@H]2C)cc1

Potency, inconclusive:
CCOC(=O)c1ccc(N2Cc3ccccc3C2=NC(=O)c2cccs2)cc1 10 µM [inhibitor, single point]
O=c1[nH][nH]c2c1[C@H](C1CCCC1)O[C@H](CCc1ccccc1)C2 11.2 µM [inhibitor, single point]
CC(C)CN1C=C2C(=O)C(C)(OC(=O)CCc3ccccc3)C(=O)C=C2C=C1c1ccc(C#N)cc1 (stereo unspecified) 10 µM [inhibitor, partial curve, poor fit]
CCOC(=O)N1CCC(N2CCCC(C(=O)c3ccc4cc(OC)ccc4c3)C2)CC1 (stereo unspecified) 10 µM [inhibitor, partial curve, poor fit]
COc1ccc([N+](=O)[O-])cc1NC(=O)C(C)OC(=O)c1ccccc1C(=O)c1ccc(Cl)cc1 (stereo unspecified) 3.98 µM [inhibitor, full curve, poor fit]
c1ccc(CNc2nc(NCC3CC3)nc3cc(-c4ccccc4)sc23)cc1 28.2 µM [inhibitor, single point]
CC(C)(C)n1nnnc1C(c1ccc(F)cc1)N(Cc1ccc(F)cc1)Cc1ccco1 (stereo unspecified) 2.51 µM [inhibitor, partial curve, poor fit]
O=C(CSc1ccccn1)Nc1nonc1[N+](=O)[O-] 20 µM [inhibitor, single point]
CNc1cncc(-c2cc(C)c(O)c(C)c2)n1 2.51 µM [inhibitor, partial curve]
CCOC(=O)CC(NC(=O)CCc1c(C)nc2cc(-c3ccccc3)nn2c1C)c1ccc(C)cc1 (stereo unspecified) 14.1 µM [inhibitor, single point]
O=C(Cc1c[nH]c2ccccc12)Nc1nnc(C2CC2)s1 2.51 µM [inhibitor, full curve, poor fit]
COc1cc(OC)c(NC(=O)C(C)n2nc(-c3ccc(C)cc3)c3c(c2=O)CCCC3)cc1Cl (stereo unspecified) 11.2 µM [inhibitor, partial curve, poor fit]
CCCC[C@@H]1C=C(C(=O)O)[C@H](c2ccc(Cl)cc2)N1S(=O)(=O)c1ccc(C)cc1 25.1 µM [inhibitor, single point]
CC12CC3CC(C)(C1)CC(C(=O)NC1=NCCS1)(C3)C2 12.6 µM [inhibitor, single point]
Cc1cc(Nc2ccccc2)n(-c2ccc(Br)cc2)n1 8.91 µM [inhibitor, partial curve, poor fit]
CCOc1ccc(S(=O)(=O)NC2CCCCCC2)cc1 12.6 µM [inhibitor, single point]
Oc1ccc(C[C@H]2CNC(=S)N2CC2CCCN2C[C@H](Cc2ccccc2)N2C[C@H](Cc3ccc(O)cc3)N(CC3CCCCCC3)C2=S)cc1 (stereo partly specified) 8.91 µM [inhibitor, partial curve, poor fit]
COc1cccc(NC(=O)CN2C(=O)CSc3ccc(S(=O)(=O)N4CCC(C)CC4)cc32)c1 6.31 µM [inhibitor, partial curve, poor fit]
S=C(Nc1cccc(Cl)c1)N(CCCN1CCCC1)Cc1cccn1Cc1ccc(Cl)cc1 8.91 µM [inhibitor, partial curve, poor fit]
CCOc1ccc(NC(=O)CC(c2ccccc2)c2ccc(F)cc2)cc1 (stereo unspecified) 1.26 µM [inhibitor, full curve, poor fit]
COc1ccc(NC(=O)c2ccc(-c3c(C)noc3C)c3ccoc23)cc1 28.2 µM [inhibitor, single point]
CCn1c(=O)c(C(=O)NNC(=O)c2ccccc2)c(O)c2ccccc21 12.6 µM [inhibitor, single point]
Cc1ccc(-c2[nH]ncc2C(=O)c2cccc(F)c2)c(O)c1 11.2 µM [inhibitor, single point]
COc1ccc(Cn2c(SCc3ccc(C(=O)NCc4cccs4)cc3)nc3ccncc32)cc1 8.91 µM [inhibitor, partial curve, poor fit]
COc1ccc(C23CC4CC(CC(C4)C2)C3)cc1C(=O)NCCN(C)C 12.6 µM [inhibitor, partial curve, poor fit]
Cc1cccc(CN2CCc3c([nH]c4ccccc34)C2C(C)(C)C)n1 (stereo unspecified) 11.2 µM [inhibitor, partial curve, poor fit]
O=C(NCCc1c[nH]c2ccccc12)c1cc(Cl)c2c(c1)OCO2 25.1 µM [inhibitor, single point]
COc1cc(NC(=O)c2ccccc2)c(OC)cc1NC(=O)Cc1ccccc1 3.55 µM [inhibitor, single point]
COc1cccc(SCc2noc(C(=O)NCCC(C)C)c2C(=O)NCCC(C)C)c1 3.98 µM [inhibitor, full curve, poor fit]
CCCc1nnc(NC(=O)CCC(=O)N2CCN(Cc3ccc(C)cc3C)CC2)s1 12.6 µM [inhibitor, partial curve, poor fit]
O=C(NCc1ccccn1)c1ccccc1OCc1ccc(Cl)cc1Cl 14.1 µM [inhibitor, partial curve, poor fit]
CC(C)c1ccc(NC(=O)C2C3C=CC4(O3)C2C(=O)N(CCCN2CCCCC2)C4C(=O)NC2CCCCC2)cc1 (stereo unspecified) 7.94 µM [inhibitor, partial curve, poor fit]
CCn1c(=O)c(C(=O)NCCc2ccccc2)c(O)c2ccccc21 10 µM [inhibitor, partial curve, poor fit]
O=C(Cc1c[nH]c2ccccc12)N/N=C/c1ccccc1O 28.2 µM [inhibitor, single point]
Cc1cc(OCc2cc(C(=O)NCc3cc(C(C)C)no3)no2)cc(C)c1Cl 10 µM [inhibitor, partial curve, poor fit]
COc1ccc(NC(=O)c2cc(-c3cc(F)ccc3OCC3CCCO3)n[nH]2)c(C)c1 (stereo unspecified) 28.2 µM [inhibitor, single point]
Cc1sc2ncn(CC(=O)NCc3ccccc3)c(=O)c2c1C 0.891 µM [inhibitor, full curve, poor fit]
Cc1ccc([N+](=O)[O-])cc1S(=O)(=O)NCC1COc2ccccc2O1 (stereo unspecified) 28.2 µM [inhibitor, single point]
CC(C)OC(=O)c1nnc(-c2ccccc2)nc1OC(C)C 10 µM [inhibitor, partial curve, poor fit]
COc1ccc(CNc2nc(-c3ccco3)nn2C(=O)c2ccccc2C)cc1 28.2 µM [inhibitor, single point]
COc1cc(/C=N/NC(N)=S)ccc1OCc1ccc(C)cc1 11.2 µM [inhibitor, partial curve, poor fit]
Cc1ccc(S(=O)(=O)N(CC(=O)NCCC2=CCCCC2)Cc2ccccc2F)cc1 10 µM [inhibitor, partial curve, poor fit]
CC(C)CC(N)c1csc(NC(=O)NCCc2ccccc2)n1 (stereo unspecified) 12.6 µM [inhibitor, single point]
CC1=C(C(=O)OCC(C)C)C(c2cccc(F)c2)N2C(=O)C(C)SC2=N1 (stereo unspecified) 14.1 µM [inhibitor, single point]
COc1cccc(Nc2nc(CN3CCOCC3)nc3sc4c(c23)CCCC4)c1 31.6 µM [inhibitor, single point]
CC1CCN(C(=S)c2cn(Cc3cccc(F)c3)c3ccccc23)CC1 28.2 µM [inhibitor, single point]
COc1ccc(/C=N\NC(=S)SCN2C(=O)C3CCC(C)(C2=O)C3(C)C)cc1 (stereo unspecified) 3.16 µM [inhibitor, full curve]
CCN(CC)CCC(=O)N1C/C(=C/c2ccccc2)C(=O)/C(=C\c2ccccc2)C1 28.2 µM [inhibitor, single point]

Source: PubChem BioAssay AID624417 (National Center for Advancing Translational Sciences (NCATS), 2012)
